# Out of some 420,000 compounds screened, about 64,000 (15%) were called active. Inconclusive means that the source gave no clear call. Such entries were picked first, then a sample of the others. Calls come from the whole dose curve; as a rule, active = well fitted inhibition curve with a large enough effect; inconclusive = small, poorly fitted or top-dose-only effect; inactive = flat fitted curve, though single readings scatter. No potency is given beside an inconclusive call; the fits are too rough.
# Assay: qHTS for Inhibitors of human tyrosyl-DNA phosphodiesterase 1 (TDP1): qHTS in cells in absence of CPT; note: nearly all actives have a fitted effect of over 55% in size
# Conditions: DT40 Tdp1-/- hTDP1 cells, no CPT, ATP luminescence, 48 h; activity change, negative = growth inhibition: at 46.2 µM (top of the series)
# Method in brief: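 Compound effects on proliferation are scored in DT40 Tdp1-/-;hTDP1 cells in the absence of CPT. ATP levels (CellTiter-Glo luminescence) are recorded after a ≥48 hr, 37 °C incubation.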
# % is set by controls: 0 for no effect and ±100 for the full control effect; potency is the fitted concentration of half-maximal effect; tags give direction and shape of the fitted curve.
Compound,Potency,"activity change, negative = growth inhibition"
CC(=O)NC(Cc1ccccc1F)C(=O)NC1CCN(C(=O)Nc2ccc(C)cc2)CC1 (configuration not stated),inactive,–
COc1ccccc1N1CCN(C(=O)c2ccc3noc(-c4ccccc4)c3c2)CC1,"inconclusive [inhibitor, single point]",–
Cc1ccc(Nc2nc(CSc3nnnn3-c3ccccc3)cs2)cc1,active: 18.4 µM,–
CCOc1ccc(S(=O)(=O)N(CC(=O)Nc2ccc(OC)c(Cl)c2)c2ccccc2)cc1,inactive,–
C[n+]1cccc(C(=O)O)c1,inactive,–
Fc1cccc(F)c1/C=C/c1ccc2ccccc2n1,"inconclusive [inhibitor, single point]",–
COc1ccccc1NC(=O)Nc1nc(CC(=O)NC2CCCC2)cs1,active: 16.4 µM,–
COP(=O)(OC)C(Nc1ccc(Cl)cc1)c1ccccc1 (configuration not stated),"inconclusive [inhibitor, single point]",–
COc1ccccc1NC(=O)C(=O)Nc1ccc2c(c1)N(C(=O)C1CC1)CCC2,"inconclusive [inhibitor, partial curve]",–
COC(=O)c1cc(S(=O)(=O)N(Cc2ccccc2)C(C)(C)C)c[nH]1,active: 16.4 µM,–
COc1ccc(N2C(=O)N3[C@H](c4cccc(C)c4)[C@@H]4C(=O)N(Cc5ccccc5)C(=O)[C@@H]4[C@]3(Cc3ccccc3)C2=O)cc1,active: 13 µM,–
Cc1cccc(NC(=O)CN2C(=O)COc3ccc(Cl)cc32)c1C,inactive,–
COc1cc2c(cc1OC)C(COc1ccccc1OC)N(C(=O)c1ccc(S(=O)(=O)N(C)C)cc1)CC2 (configuration not stated),"inconclusive [inhibitor, single point]",–
Cc1ccc(Cl)cc1N1CCN(C(=O)COc2cc(=O)n(C)c3ccccc23)CC1,active: 23.1 µM,–
COc1cc(C=C(c2nc3ccccc3s2)c2nc3ccccc3s2)cc(OC)c1O,"inconclusive [inhibitor, single point]",–
Cn1c(=O)[nH]c(=O)c2c1nc(SCC(O)CO)n2CCCc1ccccc1 (configuration not stated),–,inconclusive: -30.4% [inhibitor]
Cc1onc(C(=O)NC2CCCCC2)c1[N+](=O)[O-],"inconclusive [inhibitor, single point]",–
Cc1ccc(-c2csc3nc4ccc(C(=O)NCCO)cc4c(=O)n23)cc1,"inconclusive [inhibitor, single point]",–
Cc1ccc(/C=C/c2onc(C)c2S(=O)(=O)N2CCC(C(=O)N3CCN(c4cc(C)ccc4C)CC3)CC2)cc1,"inconclusive [inhibitor, full curve]",–
COc1cccc(NC2=Nc3cccc4cccc2c34)c1,"inconclusive [inhibitor, partial curve]",–
CC(=O)N1CCc2c(sc3c2c(=O)n(Cc2ccccc2)c(=O)n3Cc2ccccc2Cl)C1,active: 23.1 µM,–
N#CC1(NC(=O)Cn2cc(C(F)(F)F)cc(Cl)c2=O)CCCCC1,inactive,–
Cc1nn(Cc2ccc(Cl)cc2)c(Cl)c1/C=N/NC(=O)c1cccnc1,inactive,–
COC(=O)c1cc(N=C(N)N=C(N)N)cc(C(=O)OC)c1,inactive,–

Compound,Potency,"activity change, negative = growth inhibition"
O=C(CSc1nccn1Cc1ccco1)Nc1ccccc1,"inconclusive [inhibitor, single point]",–
COC(=O)c1cc2sc(Cl)cc2n1Cc1nc(-c2ccccc2C)oc1C,inactive,–
COC(=O)CCc1cccc(CCC(=O)OC)c1,inactive,–
CCCN1C(=O)C(O)(CC(=O)c2ccc3c(c2)OCCO3)c2ccccc21 (configuration not stated),"inconclusive [inhibitor, single point]",–
NC(=O)C1CCN(C(=O)c2ccco2)CC1,inactive,–
CC1CCc2c(sc3ncnc(SCC(=O)N(C)C4CCS(=O)(=O)C4)c23)C1 (configuration not stated),active: 18.4 µM,–
CCC1CCCCN1CCCNC(=O)c1c(O)nc2cc(C)ccn2c1=O (configuration not stated),–,inconclusive: -34% [inhibitor]
CCCCCCCCN1C(=O)[C@H](CC(=O)NCc2cccc3ccccc23)C[C@@]2(C(=O)OC)CC(C)(C)CC=C12,active: 11.6 µM,–
COc1ccc2[nH]c(=O)c(CN(CCN3CCCC3)C(=O)Nc3ccccc3Cl)cc2c1,"inconclusive [inhibitor, partial curve]",–
O=C(Oc1ccccc1)c1cccnc1Oc1ccccc1,inactive,–
CC1CN(C(=O)N2CCC(C(=O)NCc3cccs3)CC2)c2ccccc2O1 (configuration not stated),"inconclusive [inhibitor, single point]",–
CC(NC(=O)Nc1nnc(C(F)(F)F)s1)(C(F)(F)F)C(F)(F)F,active: 5.17 µM,–
Cc1ccc(N=N/C(=C\O)C(=O)c2ccncc2)cc1,"inconclusive [inhibitor, single point]",–
O=c1c2c3c(sc2nc(NCCO)n1Cc1ccco1)CCCCC3,"inconclusive [inhibitor, full curve, poor fit]",–
CCCCN(CC)C(=O)CSc1nc2ccccc2c(=O)n1Cc1ccco1,"inconclusive [inhibitor, single point]",–
COc1cc(-c2nc(-c3ccccc3)c(-c3ccc(Br)cc3)[nH]2)cc(OC)c1O,"inconclusive [inhibitor, single point]",–
CN(Cc1ccco1)c1ncnc2ccc(-c3ccoc3)cc12,"inconclusive [inhibitor, single point]",–
Cc1ccc(N2C(=O)c3cccc(Oc4ccc(Cl)cc4)c3C2=O)c(C)c1,"inconclusive [inhibitor, single point]",–
COc1ccc(C=C(c2ccc(OC)cc2)c2ccc(OC)cc2)cc1,"inconclusive [inhibitor, single point]",–
Cc1cc(C)c(S(=O)(=O)c2c(C)cccc2C)c(OCC(C)C)n1,active: 13 µM,–
CC(=O)N(c1ccc2oc(=O)sc2c1)S(=O)(=O)c1cccs1,"inconclusive [inhibitor, single point]",–
Cc1ccc(NC(=O)N2CCc3ccccc3C2)cc1,inactive,–
Cc1cccc(OCc2nnc(SCC(=O)N3c4ccccc4Sc4ccc(Cl)cc43)o2)c1,"inconclusive [inhibitor, single point]",–

# Source: PubChem BioAssay AID686978 (National Center for Advancing Translational Sciences (NCATS), 2013)
